The supplement of paper PMC8728848
Some of the results follow.

Columns and labels:
Assay in all cases: glycan array binding signal (z-score within array); higher = stronger binding
Conditions in all cases: glycan notation: IUPAC condensed, linker removed
[1] = target: Man(a1-2)Man(a1-3)[Man(a1-2)Man(a1-6)]Man
Procedure, shortened: (§1)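 Glycan array binding is given as a within-array Z-score, which can be read as non-binding when negative. The arrays, 3228 of them, came from the Consortium for Functional Glycomics database and were retained only where the protein sequence was available. Z-scores were averaged across arrays of the same protein sequence at different concentrations or buffers and across linkers.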

[2] = target: Man(a1-2)Man(a1-3)[Man(a1-2)Man(a1-6)]Man(a1-6)[Man(a1-2)Man(a1-2)Man(a1-3)]Man
Procedure, shortened: as §1

[3] = target: Man(a1-2)Man(a1-3)[Man(a1-2)Man(a1-6)]Man(a1-6)[Man(a1-2)Man(a1-2)Man(a1-3)]Man(b1-4)GlcNAc(b1-4)GlcNAc
Procedure, shortened: as §1

[4] = target: Man(a1-2)Man(a1-3)[Man(a1-6)]Man(a1-6)[Man(a1-2)Man(a1-3)]Man(b1-4)GlcNAc(b1-4)GlcNAc
Procedure, shortened: as §1

[5] = target: Man(a1-2)Man(a1-6)[Man(a1-3)]Man(a1-6)[Man(a1-2)Man(a1-2)Man(a1-3)]Man
Procedure, shortened: as §1

[6] = target: Man(a1-2)Man(a1-6)[Man(a1-3)]Man(a1-6)[Man(a1-2)Man(a1-2)Man(a1-3)]Man(b1-4)GlcNAc(b1-4)GlcNAc
Procedure, shortened: as §1

[7] = target: Man(a1-3)[Man(a1-6)]Man
Procedure, shortened: as §1

[8] = target: Man(a1-3)[Man(a1-6)]Man(a1-6)[Man(a1-2)Man(a1-3)]Man(b1-4)GlcNAc(b1-4)GlcNAc
Procedure, shortened: as §1

[9] = target: Man(a1-3)[Man(a1-6)]Man(a1-6)[Man(a1-3)]Man
Procedure, shortened: as §1

[10] = target: Man(a1-3)[Man(a1-6)]Man(a1-6)[Man(a1-3)]Man(b1-4)GlcNAc(b1-4)GlcNAc
Procedure, shortened: as §1

[11] = target: Man(a1-3)[Man(a1-6)]Man(b1-4)GlcNAc(b1-4)GlcNAc
Procedure, shortened: as §1

[12] = target: Man(a1-3)[Man(a1-6)]Man(b1-4)GlcNAc(b1-4)[Fuc(a1-6)]GlcNAc
Procedure, shortened: as §1

[13] = target: Man(a1-6)Man
Procedure, shortened: as §1

[14] = target: Man(b1-4)GlcNAc
Procedure, shortened: as §1

[15] = target: MurNAc(b1-4)GlcNAc
Procedure, shortened: as §1

[16] = target: Neu5Ac(a2-3)Gal
Procedure, shortened: as §1

[17] = target: Neu5Ac(a2-3)Gal(b1-3)GalNAc
Procedure, shortened: as §1

[18] = target: Neu5Ac(a2-3)Gal(b1-3)GalNAc(b1-3)Gal(a1-4)Gal(b1-4)Glc
Procedure, shortened: as §1

[19] = target: Neu5Ac(a2-3)Gal(b1-3)GalNAc(b1-4)Gal(b1-4)Glc
Procedure, shortened: as §1

[20] = target: Neu5Ac(a2-3)Gal(b1-3)GalNAc(b1-4)[Neu5Ac(a2-3)]Gal(b1-4)Glc
Procedure, shortened: as §1

[21] = target: Neu5Ac(a2-3)Gal(b1-3)GalNAc(b1-4)[Neu5Ac(a2-8)Neu5Ac(a2-3)]Gal(b1-4)Glc
Procedure, shortened: as §1

[22] = target: Neu5Ac(a2-3)Gal(b1-3)GalNAc6S
Procedure, shortened: as §1

[23] = target: Neu5Ac(a2-3)Gal(b1-3)GlcNAc
Procedure, shortened: as §1

[24] = target: Neu5Ac(a2-3)Gal(b1-3)GlcNAc(b1-2)Man
Procedure, shortened: as §1

[25] = target: Neu5Ac(a2-3)Gal(b1-3)GlcNAc(b1-2)Man(a1-3)[GlcNAc(b1-4)][Neu5Ac(a2-3)Gal(b1-3)GlcNAc(b1-2)Man(a1-6)]Man(b1-4)GlcNAc(b1-4)GlcNAc
Procedure, shortened: as §1

[26] = target: Neu5Ac(a2-3)Gal(b1-3)GlcNAc(b1-2)Man(a1-3)[Neu5Ac(a2-3)Gal(b1-3)GlcNAc(b1-2)Man(a1-6)]Man(b1-4)GlcNAc(b1-4)GlcNAc
Procedure, shortened: as §1

[27] = target: Neu5Ac(a2-3)Gal(b1-3)GlcNAc(b1-2)[Neu5Ac(a2-3)Gal(b1-3)GlcNAc(b1-4)]Man(a1-6)[Neu5Ac(a2-3)Gal(b1-3)GlcNAc(b1-2)Man(a1-3)]Man(b1-4)GlcNAc(b1-4)GlcNAc
Procedure, shortened: as §1

[28] = target: Neu5Ac(a2-3)Gal(b1-3)GlcNAc(b1-3)Gal(b1-3)GlcNAc
Procedure, shortened: as §1

[29] = target: Neu5Ac(a2-3)Gal(b1-3)GlcNAc(b1-3)Gal(b1-4)GlcNAc
Procedure, shortened: as §1

[30] = target: Neu5Ac(a2-3)Gal(b1-3)GlcNAc(b1-3)GalNAc
Procedure, shortened: as §1

[31] = target: Neu5Ac(a2-3)Gal(b1-3)GlcNAc(b1-6)GalNAc
Procedure, shortened: as §1

[32] = target: Neu5Ac(a2-3)Gal(b1-3)GlcNAc6S
Procedure, shortened: as §1

[33] = target: Neu5Ac(a2-3)Gal(b1-3)[Fuc(a1-4)]GlcNAc
Procedure, shortened: as §1

[34] = target: Neu5Ac(a2-3)Gal(b1-3)[Fuc(a1-4)]GlcNAc(b1-3)Gal(b1-3)[Fuc(a1-4)]GlcNAc
Procedure, shortened: as §1

[35] = target: Neu5Ac(a2-3)Gal(b1-3)[Fuc(a1-4)]GlcNAc(b1-3)Gal(b1-4)[Fuc(a1-3)]GlcNAc
Procedure, shortened: as §1

[36] = target: Neu5Ac(a2-3)Gal(b1-3)[GlcNAc(b1-6)]GalNAc
Procedure, shortened: as §1

[37] = target: Neu5Ac(a2-3)Gal(b1-3)[Neu5Ac(a2-6)]GalNAc
Procedure, shortened: as §1

[38] = target: Neu5Ac(a2-3)Gal(b1-3)[Neu5Ac(a2-6)]GlcNAc(b1-3)[Fuc(a1-3)[Gal(b1-4)]GlcNAc(b1-6)]Gal(b1-4)Glc
Procedure, shortened: as §1

[39] = target: Neu5Ac(a2-3)Gal(b1-3)]Neu5Ac(a2-3)Gal(b1-4)]GlcNAc
Procedure, shortened: as §1

[40] = target: Neu5Ac(a2-3)Gal(b1-4)Glc
Procedure, shortened: as §1

[41] = target: Neu5Ac(a2-3)Gal(b1-4)GlcNAc
Procedure, shortened: as §1

[42] = target: Neu5Ac(a2-3)Gal(b1-4)GlcNAc(b1-2)Man
Procedure, shortened: as §1

[43] = target: Neu5Ac(a2-3)Gal(b1-4)GlcNAc(b1-2)Man(a1-3)[GlcNAc(b1-4)][Neu5Ac(a2-3)Gal(b1-4)GlcNAc(b1-2)Man(a1-6)]Man(b1-4)GlcNAc(b1-4)GlcNAc
Procedure, shortened: as §1

[44] = target: Neu5Ac(a2-3)Gal(b1-4)GlcNAc(b1-2)Man(a1-3)[Neu5Ac(a2-3)Gal(b1-4)GlcNAc(b1-2)Man(a1-6)]Man(b1-4)GlcNAc(b1-4)GlcNAc
Procedure, shortened: as §1

[45] = target: Neu5Ac(a2-3)Gal(b1-4)GlcNAc(b1-2)Man(a1-3)[Neu5Ac(a2-3)Gal(b1-4)GlcNAc(b1-2)Man(a1-6)]Man(b1-4)GlcNAc(b1-4)[Fuc(a1-6)]GlcNAc
Procedure, shortened: as §1

B1: Siglec-9 (Homo sapiens), Q9Y336 (protein)
chain: MLLLLLPLLWGRERAEGQTSKLLTMQSSVTVQEGLCVHVPCSFSYPSHGWIYPGPVVHGYWFREGANTDQDAPVATNNPARAVWEETRDRFHLLGDPHTKNCTLSIRDARRSDAGRYFFRMEKGSIKWNYKHHRLSVNVTALTHRPNILIPGTLESGCPQNLTCSVPWACEQGTPPMISWIGTSVSPLDPSTTRSSVLTLIPQPQDHGTSLTCQVTFPGASVTTNKTVHLNVSYPPQNLTMTVFQGDGTVSTVLGNGSSLSLPEGQSLRLVCAVDAVDSNPPARLSLSWRGLTLCPSQPSNPGVLELPWVHLRDAAEFTCRAQNPLGSQQVYLNVSLQSKATSGVTQGVVGGAGATALVFLSFCVIFVVVRSCRKKSARPAAGVGDTGIEDANAVRGSASQGPLTEPWAEDSPPDQPPPASARSSVGEGELQYASLSFQMVKPWDSRGQEATDTEYSEIKIHR
Q: B1 was tested. Which “glycan array binding signal (z-score)” value [1] did it give?
A: -0.182

Q: And the “glycan array binding signal (z-score)” value [2]?
A: -0.055

Q: And the “glycan array binding signal (z-score)” value [3]?
A: -0.286

Q: And the “glycan array binding signal (z-score)” value [4]?
A: -0.451

Q: What about the “glycan array binding signal (z-score)” value [5] of the same binder?
A: -0.135

Q: And the “glycan array binding signal (z-score)” value [6]?
A: 0.09

Q: What about the “glycan array binding signal (z-score)” value [7] of the same binder?
A: -0.144

Q: And the “glycan array binding signal (z-score)” value [8]?
A: -0.158

Q: What about the “glycan array binding signal (z-score)” value [9] of the same binder?
A: -0.224

Q: And the “glycan array binding signal (z-score)” value [10]?
A: -0.007

Q: And the “glycan array binding signal (z-score)” value [11]?
A: -0.235

Q: What about the “glycan array binding signal (z-score)” value [12] of the same binder?
A: -0.082

Q: What about the “glycan array binding signal (z-score)” value [13] of the same binder?
A: -0.173

Q: What about the “glycan array binding signal (z-score)” value [14] of the same binder?
A: -0.223

Q: What about the “glycan array binding signal (z-score)” value [15] of the same binder?
A: -0.143

Q: And the “glycan array binding signal (z-score)” value [16]?
A: 0.007

Q: And the “glycan array binding signal (z-score)” value [17]?
A: 0.648

Q: What about the “glycan array binding signal (z-score)” value [18] of the same binder?
A: -0.249

Q: What about the “glycan array binding signal (z-score)” value [19] of the same binder?
A: -0.072

Q: And the “glycan array binding signal (z-score)” value [20]?
A: 0.198

Q: And the “glycan array binding signal (z-score)” value [21]?
A: -0.218

Q: And the “glycan array binding signal (z-score)” value [22]?
A: 1.05

Q: What about the “glycan array binding signal (z-score)” value [23] of the same binder?
A: 0.087

Q: And the “glycan array binding signal (z-score)” value [24]?
A: 0.308

Q: What about the “glycan array binding signal (z-score)” value [25] of the same binder?
A: 0.178

Q: What about the “glycan array binding signal (z-score)” value [26] of the same binder?
A: -0.061

Q: And the “glycan array binding signal (z-score)” value [27]?
A: -0.076

Q: And the “glycan array binding signal (z-score)” value [28]?
A: -0.277

Q: What about the “glycan array binding signal (z-score)” value [29] of the same binder?
A: -0.097

Q: And the “glycan array binding signal (z-score)” value [30]?
A: -0.049

Q: And the “glycan array binding signal (z-score)” value [31]?
A: 0.961

Q: And the “glycan array binding signal (z-score)” value [32]?
A: 0.256

Q: What about the “glycan array binding signal (z-score)” value [33] of the same binder?
A: 0.15

Q: What about the “glycan array binding signal (z-score)” value [34] of the same binder?
A: -0.103

Q: What about the “glycan array binding signal (z-score)” value [35] of the same binder?
A: -0.101

Q: And the “glycan array binding signal (z-score)” value [36]?
A: 0.02

Q: What about the “glycan array binding signal (z-score)” value [37] of the same binder?
A: 0.383

Q: What about the “glycan array binding signal (z-score)” value [38] of the same binder?
A: 0.225

Q: And the “glycan array binding signal (z-score)” value [39]?
A: 1.76

Q: What about the “glycan array binding signal (z-score)” value [40] of the same binder?
A: 1.09

Q: And the “glycan array binding signal (z-score)” value [41]?
A: 0.222

Q: And the “glycan array binding signal (z-score)” value [42]?
A: 0.478

Q: What about the “glycan array binding signal (z-score)” value [43] of the same binder?
A: 0.06

Q: What about the “glycan array binding signal (z-score)” value [44] of the same binder?
A: 0.031

Q: And the “glycan array binding signal (z-score)” value [45]?
A: 0.17
